What was measured:
[1] = test system: influenza virus A/PR/8/34 (PR8); assay: Influenza infection lethality model; format: in vivo; conditions: 100 ug/mouse IP for 5 consecutive days from day 2; 14 days
[2] = test system: influenza virus A/PR/8/34 (PR8); conditions: daily for five days beginning two days after influenza infection; cited from earlier work

| SMILES | clinical scores of influenza-infected mice [1] | survival of influenza-infected mice [1] | reduction of mortality [2] |
| --- | --- | --- | --- |
| NC(=O)N(CCC(=O)O)NC(=O)[C@H](CO)NC(=O)[C@H](CO)NC(=O)N(N)Cc1ccccc1 [K883] | lowered clinical scores | significant survival | – |
| NC(=O)[C@H](CCC(=O)O)NC(=O)[C@H](CO)NC(=O)[C@H](CO)NC(=O)[C@@H](N)Cc1ccccc1 [P5779] | – | – | approximately 9 fold |

From US11471508B2, “HMGB1 antagonist treatment of diabetic peripheral neuropathy” (THE FEINSTEIN INSTITUTES FOR MEDICAL RESEARCH, priority 2019, dated 2022)
